The source gives no read counts; variants with many changes may rest on few reads.
B1: CPEB3 Ribozyme (parent)
chain: UAACAGGGGGCCACAGCAGAAGCGUUCACGUCGCAGCCCCUGUCAGAUUCUGGUGAAUCUGCGAAUUCUGCUGUAUAUCUC

Variants of: B1
Assay: self-cleavage, relative activity (ratio to wild type); higher = more cleavage; in vitro, sequencing
Method in brief: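 Relative activity was defined as the cleaved/total read fraction for a variant divided by the same fraction for the unmutated ribozyme. CPEB3 self-cleaving ribozyme libraries were made by rounds of error-prone PCR, barcoded, and transcribed in vitro with T7 RNA polymerase for 5 hours at 37°C, and cleavage ran through transcription plus a 15 min DNase I step before EDTA. Illumina sequencing of template-switched reverse transcripts gave the reads, and DNA sequencing mapped the barcodes. Averages come from three batches, using variants with at least 5 reads.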
Variant U25A A65U U72C has a self-cleavage of 0.12. In the case of U25A A77U U80C, the self-cleavage is reported as 0.33. U25A C29A A57G gave a self-cleavage of 0.28. With U25A C29A U72A the self-cleavage was 0.34. In the case of U25A C29U A45G A47G U72A A75U, the self-cleavage is reported as 0.08. U25A C29U U48C A65G U74A gave a self-cleavage of 0.08. Variant U25A C29U U49C U54C U76A has a self-cleavage of 0.04. Variant U25A C29U U60A has a self-cleavage of 0.07. Variant U25A C32U A45G A65G has a self-cleavage of 0.13. U25A C32U A56G showed a self-cleavage of 0.18. Variant U25A C32U A57U has a self-cleavage of 0.07. Variant U25A C32U U54A U60C has a self-cleavage of 0.42. Variant U25A C32U U60A has a self-cleavage of 0.22. In the case of U25A C32U U67C, the self-cleavage is reported as 0.12. With U25A C32U U78C the self-cleavage was 0.36. With U25A C34U U54A the self-cleavage was 0.16. Work on U25A C37A A64U yielded a self-cleavage of 0.13. Work on U25A C37U U72A yielded a self-cleavage of 0.1. Work on U25A C38A U58A yielded a self-cleavage of 0.15. U25A C38U U51A A57G A75C U76C showed a self-cleavage of 0.05. Work on U25A C39G U60C U72C U74G yielded a self-cleavage of 0.03. U25A C40A U49A U51A showed a self-cleavage of 0.18. In the case of U25A C44A U76A A77U, the self-cleavage is reported as 0.09. Work on U25A C44U C62U U74C yielded a self-cleavage of 0.08. For U25A C50G U66C, the self-cleavage was 0.1. For U25A C50G U66C U69A, the self-cleavage was 0.18. Work on U25A C62A A77G yielded a self-cleavage of 0.18. U25A G30A A65G gave a self-cleavage of 0.21. Variant U25A G30U G42A G53A U78A has a self-cleavage of 0.1. With U25A G33A U49A U69A U72C the self-cleavage was 0.09. U25A G33A U58C A64G U74A gave a self-cleavage of 0.04. Work on U25A G33U A56G U69G U72A yielded a self-cleavage of 0.05. U25A G36A A57G gave a self-cleavage of 0.13. U25A G36A U49A U60G U66C showed a self-cleavage of 0.05. In the case of U25A G36C A47U U54C, the self-cleavage is reported as 0.1. With U25A G42A G52A C62U the self-cleavage was 0.35. U25A G42U A47G A56G showed a self-cleavage of 0.18. For U25A G42U U43A U66C, the self-cleavage was 0.4. With U25A G55A U60C the self-cleavage was 0.1. With U25A G61A U69C the self-cleavage was 0.16. U25A G61C A64U U78C gave a self-cleavage of 0.11. For U25A G61C G63A A64G A75U, the self-cleavage was 0.18. U25A G63U U76C U80A showed a self-cleavage of 0.08. Variant U25A U26A C27G U31A A45G U49C has a self-cleavage of 0.06. For U25A U26A G53A U72A, the self-cleavage was 0.08. With U25A U26A G63A A64G A65G the self-cleavage was 0.19. For U25A U26A U41C U49A A56G, the self-cleavage was 0.07. Variant U25A U26A U51A has a self-cleavage of 0.13. Work on U25A U26A U69C yielded a self-cleavage of 0.16. Variant U25A U26C A35U U66C A77G has a self-cleavage of 0.12. U25A U26C A35U U69A A75G gave a self-cleavage of 0.15. With U25A U26C A45G A47G U60A U74A A75U the self-cleavage was 0.1. With U25A U26C A65C the self-cleavage was 0.48. For U25A U26C A75G U78C, the self-cleavage was 0.05. For U25A U26C A77U, the self-cleavage was 0.12. In the case of U25A U26C C27U A45U, the self-cleavage is reported as 0.34. With U25A U26C C27U A56G U60A U67A U72C the self-cleavage was 0.04. In the case of U25A U26C C27U U66C U72C, the self-cleavage is reported as 0.04. With U25A U26C C59A the self-cleavage was 0.11. Variant U25A U26C G33A A57U U69A has a self-cleavage of 0.05. U25A U26C G70A U80C showed a self-cleavage of 0.06. For U25A U26C U41C A47G U49C U66C, the self-cleavage was 0.05. With U25A U26C U51G A56G A75U the self-cleavage was 0.08. Variant U25A U26C U54C A64G U69G has a self-cleavage of 0.05. With U25A U26C U72C U74C the self-cleavage was 0.06. Variant U25A U26G A35G U48C U49C U60G has a self-cleavage of 0.11. Work on U25A U26G A45U U51A U74A yielded a self-cleavage of 0.26. Variant U25A U26G A47G U58C U66C U80C has a self-cleavage of 0.05. In the case of U25A U26G U49C, the self-cleavage is reported as 0.3. U25A U26G U49C U60A A64U gave a self-cleavage of 0.08. For U25A U31A A35C U43C, the self-cleavage was 0.14. U25A U31A A64U gave a self-cleavage of 0.24. With U25A U31A U43C the self-cleavage was 0.2. Variant U25A U31A U43C U78A has a self-cleavage of 0.05. With U25A U31C A65G the self-cleavage was 0.34. Work on U25A U31C C32U A45G U66C yielded a self-cleavage of 0.03. Work on U25A U31C C38G U43C U66C yielded a self-cleavage of 0.16. Variant U25A U31C U41C has a self-cleavage of 0.09. With U25A U31C U54G the self-cleavage was 0.25. U25A U31G A45U U69C showed a self-cleavage of 0.16. U25A U41A A57G gave a self-cleavage of 0.38. Variant U25A U41A G55A A57U U66C has a self-cleavage of 0.08. Variant U25A U41A U54G has a self-cleavage of 0.12. For U25A U41C A47G U58C, the self-cleavage was 0.32. For U25A U41C G42A A64U U67A U74A, the self-cleavage was 0.07. Work on U25A U41C U43A U60C U66C U69C yielded a self-cleavage of 0.05. With U25A U41C U43G U49C G63U the self-cleavage was 0.06. For U25A U41C U49C U51C U58C U74A, the self-cleavage was 0.24. With U25A U41C U51G U80C the self-cleavage was 0.24. Variant U25A U41C U54A has a self-cleavage of 0.19. Variant U25A U41C U69A has a self-cleavage of 0.11. Work on U25A U41C U69C yielded a self-cleavage of 0.21. Variant U25A U41G U51A U76C has a self-cleavage of 0.24. With U25A U41G U58A U67A the self-cleavage was 0.19. U25A U43A A45G U67C U72C U74C U78C gave a self-cleavage of 0.06. In the case of U25A U43A A56G U69C U76C, the self-cleavage is reported as 0.14. For U25A U43A A65U, the self-cleavage was 0.26. Work on U25A U43C A47G A57U G63U U80C C81U yielded a self-cleavage of 0.17. U25A U43C A56G U58G C59A A75G showed a self-cleavage of 0.13. Work on U25A U43C C44U yielded a self-cleavage of 0.17. With U25A U43C U54C A77U the self-cleavage was 0.08. With U25A U43C U58C the self-cleavage was 0.34. U25A U43C U67C gave a self-cleavage of 0.15. For U25A U43C U76C U80C, the self-cleavage was 0.23. U25A U48A U76A A77G showed a self-cleavage of 0.05. Variant U25A U48C U51A has a self-cleavage of 0.22. For U25A U48C U54C C59A, the self-cleavage was 0.13. U25A U48C U69C U72C U78A U80C gave a self-cleavage of 0.06. In the case of U25A U48G A64G U74C, the self-cleavage is reported as 0.06. Variant U25A U49A A64U A65G A77U has a self-cleavage of 0.07. With U25A U49A U51A G53A U54C U67A the self-cleavage was 0.06. In the case of U25A U49A U51C G63C U67C U74C U78C, the self-cleavage is reported as 0.08. For U25A U49A U60A, the self-cleavage was 0.15. Variant U25A U49A U72C has a self-cleavage of 0.22. In the case of U25A U49C C62U U76A, the self-cleavage is reported as 0.04. U25A U49C U58C A64G showed a self-cleavage of 0.26. With U25A U49C U67A U78C the self-cleavage was 0.41. U25A U49C U67C gave a self-cleavage of 0.12. With U25A U49C U69C the self-cleavage was 0.17. In the case of U25A U51A G63C A64C, the self-cleavage is reported as 0.08. U25A U51A U54A A65G U78A showed a self-cleavage of 0.12. Variant U25A U51C A75U has a self-cleavage of 0.33. For U25A U51C G61C, the self-cleavage was 0.06. With U25A U51G A56U the self-cleavage was 0.08. For U25A U51G U66C U72A, the self-cleavage was 0.11. With U25A U54A U67C the self-cleavage was 0.09. U25A U54A U80C gave a self-cleavage of 0.43. Variant U25A U54C A65G U69C has a self-cleavage of 0.11. U25A U60A A65C U74A U80A gave a self-cleavage of 0.08. With U25A U60A G73U the self-cleavage was 0.2. For U25A U60A U78C, the self-cleavage was 0.08. With U25A U60C A64U the self-cleavage was 0.11. U25A U60C U72C showed a self-cleavage of 0.26. For U25A U66C C68A, the self-cleavage was 0.39. With U25A U67A U72G U74C the self-cleavage was 0.27. For U25A U67C U78A, the self-cleavage was 0.14. U25A U67C U80G gave a self-cleavage of 0.42. In the case of U25A U69A A77U, the self-cleavage is reported as 0.13. In the case of U25A U69C A77U, the self-cleavage is reported as 0.15. Work on U25A U69C U80C yielded a self-cleavage of 0.11. Variant U25A U76A A77G has a self-cleavage of 0.1. With U25A U76C A77U the self-cleavage was 0.22. Variant U25A U78A U80C has a self-cleavage of 0.21. For U25C A28C A35U A64G, the self-cleavage was 0.08. U25C A28C C39U gave a self-cleavage of 0.2. U25C A28C C59G U80C gave a self-cleavage of 0.06. In the case of U25C A28C U31A U43C, the self-cleavage is reported as 0.09. Variant U25C A28C U31C U67C has a self-cleavage of 0.18. Variant U25C A28C U41C has a self-cleavage of 0.27. Work on U25C A28C U80C yielded a self-cleavage of 0.21. In the case of U25C A28G A35U A56G G61C U76A U80C, the self-cleavage is reported as 0.04. U25C A28G A47U showed a self-cleavage of 0.21. With U25C A28G A56G C68A U78C the self-cleavage was 0.13. U25C A28G C37U A45G U67C showed a self-cleavage of 0.06. U25C A28G C39A A77G showed a self-cleavage of 0.05. With U25C A28G C39G U48C U69A U78C the self-cleavage was 0.12. For U25C A28G U31A, the self-cleavage was 0.11. In the case of U25C A28G U31A G33U U69A, the self-cleavage is reported as 0.07. Work on U25C A28G U31C yielded a self-cleavage of 0.36. Work on U25C A28G U41C yielded a self-cleavage of 0.44. U25C A28G U41C A45G U58C gave a self-cleavage of 0.31. U25C A28G U43A A47G showed a self-cleavage of 0.07. Work on U25C A28G U43C G63A A65U yielded a self-cleavage of 0.12. Work on U25C A28G U43C U54C A65U yielded a self-cleavage of 0.2. With U25C A28G U49C the self-cleavage was 0.26. U25C A28G U49C U72C U74C showed a self-cleavage of 0.07. U25C A28G U58A showed a self-cleavage of 0.19.

— the RNAGym collection of RNA variant scans (doi:10.1093/nar/gkz1192)
